These are yes or no findings as the source states them, for the method shown. For some of these results: In cells and extracts the contact can be indirect. Some entries that bind do so weakly or less than the wild type. For some of these results: Tags and fused reporters may be left off the sequences shown. Blank lines part the entries; values can stand above or below the binder they belong to.
Columns and labels:
[1] = biological target: T1, GvpA fused to NGFP or CGFP (Halobacterium salinarum) (UniProt P08958); assay: split reporter; split-GFP (NGFP and CGFP of salt-stable mGFP2) in Hfx. volcanii transformants, 24 h 37 °C then 24 h 30 °C; relative fluorescence (rf) against the wild type; the highest of eight tag combinations is given
T1 sequence: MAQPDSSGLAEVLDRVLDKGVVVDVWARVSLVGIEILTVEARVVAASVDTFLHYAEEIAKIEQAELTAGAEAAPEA

[2] = biological target: T2, GvpC fused to NGFP or CGFP (Halobacterium salinarum) (UniProt P24574); assay: as above
T2 sequence: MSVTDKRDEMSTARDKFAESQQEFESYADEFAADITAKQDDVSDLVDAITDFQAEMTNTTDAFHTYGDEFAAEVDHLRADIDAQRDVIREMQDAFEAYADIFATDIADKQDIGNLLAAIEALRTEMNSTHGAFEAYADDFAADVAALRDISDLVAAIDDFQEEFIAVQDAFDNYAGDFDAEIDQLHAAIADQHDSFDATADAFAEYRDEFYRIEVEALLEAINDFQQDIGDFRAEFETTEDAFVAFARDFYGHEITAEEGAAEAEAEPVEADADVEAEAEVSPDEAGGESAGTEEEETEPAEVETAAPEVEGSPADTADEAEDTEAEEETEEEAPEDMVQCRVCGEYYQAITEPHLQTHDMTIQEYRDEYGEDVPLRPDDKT

[3] = biological target: T3, GvpA fragment A44-76 (Halobacterium salinarum) (UniProt P08958); assay: as above
T3 sequence: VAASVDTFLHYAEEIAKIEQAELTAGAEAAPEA

[4] = biological target: T4, GvpA fragment A1-43 (Halobacterium salinarum) (UniProt P08958); assay: as above
T4 sequence: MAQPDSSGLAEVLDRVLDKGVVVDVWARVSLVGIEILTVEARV

[5] = biological target: T5, GvpA fragment A20-47 (Halobacterium salinarum) (UniProt P08958); assay: as above
T5 sequence: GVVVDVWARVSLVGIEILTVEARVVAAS

[6] = biological target: T6, CBDO (Halobacterium salinarum) (UniProt O51968); assay: pull-down; CBD-tagged bait and one untagged prey co-produced in Hfx. volcanii CBDX/Y transformants; lysate in 2.5 M KCl buffer pH 8.0 bound to cellulose (Avicel), six washes, elution with ethylene glycol, Western analysis with Gvp antisera
T6 sequence: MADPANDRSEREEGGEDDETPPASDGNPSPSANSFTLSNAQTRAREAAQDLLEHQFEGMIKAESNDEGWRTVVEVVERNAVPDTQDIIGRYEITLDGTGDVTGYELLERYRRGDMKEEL

[7] = biological target: GvpC (Halobacterium salinarum) (UniProt P24574); assay: SDS-PAGE and Western analysis of lysates; lysates of Hfx. volcanii transformants producing one Gvp protein alone (controls); bands larger than the monomer
[8] = biological target: T7, CBDA (Halobacterium salinarum) (UniProt P08958); assay: pull-down; CBD-tagged bait and one untagged prey co-produced in Hfx. volcanii CBDX/Y transformants; lysate in 2.5 M KCl buffer pH 8.0 bound to cellulose (Avicel), six washes, elution with ethylene glycol, Western analysis with Gvp antisera
T7 sequence: T1 sequence

[9] = biological target: T7, CBDA (Halobacterium salinarum); assay: pull-down; CBDA co-produced with GvpF through GvpM all together (CBDA/F-M transformants); cellulose matrix, elution fraction probed by Western analysis with each antiserum
[10] = biological target: GvpJ (Halobacterium salinarum) (UniProt P24374); assay: SDS-PAGE and Western analysis of lysates; lysates of Hfx. volcanii transformants producing one Gvp protein alone (controls); bands larger than the monomer
[11] = biological target: T8, GvpO fused to NGFP or CGFP (Halobacterium salinarum) (UniProt O51968); assay: split reporter; split-GFP (NGFP and CGFP of salt-stable mGFP2) in Hfx. volcanii transformants, 24 h 37 °C then 24 h 30 °C; relative fluorescence (rf) against the wild type; the highest of eight tag combinations is given
T8 sequence: T6 sequence

[12] = biological target: T9, GvpC N-terminal fragment Nterm (Halobacterium salinarum) (UniProt P24574); assay: as above
T9 sequence: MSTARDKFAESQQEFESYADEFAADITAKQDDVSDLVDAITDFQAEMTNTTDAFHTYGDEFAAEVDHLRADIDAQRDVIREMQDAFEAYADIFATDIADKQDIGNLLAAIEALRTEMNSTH

[13] = biological target: T10, CBDC (Halobacterium salinarum) (UniProt P24574); assay: pull-down; CBD-tagged bait and one untagged prey co-produced in Hfx. volcanii CBDX/Y transformants; lysate in 2.5 M KCl buffer pH 8.0 bound to cellulose (Avicel), six washes, elution with ethylene glycol, Western analysis with Gvp antisera
T10 sequence: T2 sequence

[14] = biological target: T11, GvpC C-terminal fragment Cterm (Halobacterium salinarum) (UniProt P24574); assay: split reporter; split-GFP (NGFP and CGFP of salt-stable mGFP2) in Hfx. volcanii transformants, 24 h 37 °C then 24 h 30 °C; relative fluorescence (rf) against the wild type; the highest of eight tag combinations is given
T11 sequence: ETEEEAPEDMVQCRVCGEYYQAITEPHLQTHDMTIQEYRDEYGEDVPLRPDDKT

[15] = biological target: T12, GvpA fragment A1-34 (Halobacterium salinarum) (UniProt P08958); assay: as above
T12 sequence: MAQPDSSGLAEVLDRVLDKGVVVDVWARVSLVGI

B1: GvpC C-terminal fragment Cterm (domain or fragment, UniProt P24574 329-382)
chain: T11 sequence
- binding [1]: no binding (tested: rf < 2.5)
- binding [2]: binds

B2: GvpC N-terminal fragment Nterm (domain or fragment, UniProt P24574 10-130)
chain: T9 sequence
- binding [1]: no binding (tested: rf < 2.5)
- binding [2]: binds

Binder: MAQPDSSGLAEVLDRVLDKGVVVDVWARVSLVGI (domain or fragment, UniProt P08958 1-34) [GvpA fragment A1-34]
- binding [3]: no binding (tested: rf ≤ 0.48)
- binding [4]: no binding (tested: rf ≤ 0.48)
- binding [5]: no binding (tested: rf ≤ 0.48)

B3: GvpC (protein, UniProt P24574 1-382)
chain: T2 sequence
- binding [6]: binds
- binding [7]: binds

B5: GvpA (protein, UniProt P08958 1-76)
chain: T1 sequence
- binding [6]: binds

Binder: MAQPDSSGLAEVLDRVLDKGVV (domain or fragment, UniProt P08958 1-22) [GvpA fragment A1-22]
- binding [3]: no binding (tested: rf ≤ 0.48)
- binding [4]: no binding (tested: rf ≤ 0.48)
- binding [5]: no binding (tested: rf ≤ 0.48)
- binding [15]: no binding (tested: rf ≤ 0.48)

Next, values leading:

- binding [8]: binds
- binding [9]: binds
- binding [10]: binds
B4: GvpJ (protein, UniProt P24374 1-114)
chain: MSDPKPTRSQGDLAEMLEMLLDKGVVVNADIAVSVGDTELLGIELRAAIASFETAAEYGLEFPTGTDMERVESAANISPDQSDPASETQSETESTNPLSDDSTPTASTSAEETK

- binding [11]: binds
- binding [12]: binds
B6: GvpL fused to NGFP or CGFP (protein, UniProt Q9HI27 1-281)
chain: MTDHRPSPEEEQTTANEERTVSNGRYLYCVVDTTSSESATLSTTGVDDNPVYVVEADGVGAVVHDCETVYETEDLEQVKRWLVTHQQVVDAASDAFGTPLPMRFDTVLEGGDASIERWLEDHYEGFRDELASFAGVWEYRINLLWDSAPFEETIADRDDRLRELRQRQQQSGAGKKFLLEKQSDQRLQELKRERRTELADQLKEAITPVVNDLTEQDTNTPLQDEHSSIEKEQIVRFAVLADEDDETALGDRLDTIVEHEGVEIRFTGPWPPYTFAPDIGK

- binding [13]: binds
- binding [8]: binds
B7: GvpO (protein, UniProt O51968 1-119)
chain: T6 sequence

- binding [14]: binds
B8: GvpO fused to NGFP or CGFP (protein, UniProt O51968 1-119)
chain: T6 sequence

— article PMC9372576
